Here are results for 84 variants from a collection of fitness landscapes (doi:10.1126/science.1257360).

B1: PhoQ; a variant is named by its letters at X, in order, P23837 (parent)
chain: MKKLLRLFFPLSLRVRFLLATAAVVLVLSLAYGMVALIGYSVSFDKTTFRLLRGESNLFYTLAKWENNKLHVELPENIDKQSPTMTLIYDENGQLLWAQRDVPWLMKMIQPDWLKSNGFHEIEADVNDTSLLLSGDHSIQQQLQEVREDDDDAEMTHSVAVNVYPATSRMPKLTIVVVDTIPVELKSSYMVWSWFIYVLSANLLLVIPLLWVAAWWSLRPIEALAKEVRELEEHNRELLNPATTRELTSLVRNLNRLLKSERERYDKYRTTLTDLTHSLKTPLXXLQXXLRSLRSEKMSVSDAEPVMLEQISRISQQIGYYLHRASMRGGTLLSRELHPVAPLLDNLTSALNKVYQRKGVNISLDISPEISFVGEQNDFVEVMGNVLDNACKYCLEFVEISARQTDEHLYIVVEDDGPGIPLSKREVIFDRGQRVDTLRPGQGVGLAVAREITEQYEGKIVAGESMLGGARMEVIFGRQHSAPKDE

Some of the results follow.

In the test the parent is B1. Briefly: enrichment ratio after two sorts for PhoP signalling (ratio (wild type AVST 3.29)); higher = more functional. As to conditions: with PhoP (E. coli).
For the variant DNMA, the enrichment ratio was at most 0.25.

For the variant FICY, the enrichment ratio is at most 0.25.

For MHTS, the enrichment ratio is at most 0.25.

Consider PDRI, for which the enrichment ratio was at most 0.25.

With SRNC, the enrichment ratio was at most 0.25.

Consider PIQD, for which the enrichment ratio is at most 0.25.

For the variant GHKK, the enrichment ratio was at most 0.25.

Regarding STGA, the enrichment ratio amounted to 2.45.

Regarding WDPH, the enrichment ratio was at most 0.25.

In the case of EEVH, the enrichment ratio is at most 0.25.

On to AGKV, for which the enrichment ratio is at most 0.25.

In the case of NNHA, the enrichment ratio was at most 0.25.

For EHLQ, the enrichment ratio is at most 0.25.

As to EQPA, the enrichment ratio was at most 0.25.

Regarding DNPA, the enrichment ratio was at most 0.25.

On to YEAI, for which the enrichment ratio is at most 0.25.

Turning to DPER, the enrichment ratio was at most 0.25.

Take SLKF: the enrichment ratio is at most 0.25.

Turning to KPYA, the enrichment ratio is at most 0.25.

With EDDQ, the enrichment ratio is at most 0.25.

With YGYG, the enrichment ratio is at most 0.25.

Regarding PYPS, the enrichment ratio was at most 0.25.

Regarding QESW, the enrichment ratio is at most 0.25.

Regarding LWII, the enrichment ratio was at most 0.25.

For HQLS, the enrichment ratio is at most 0.25.

For the variant KMPI, the enrichment ratio is at most 0.25.

As to ERRD, the enrichment ratio was at most 0.25.

On to PVSP, for which the enrichment ratio was at most 0.25.

As to DKVE, the enrichment ratio was at most 0.25.

As to TRWC, the enrichment ratio was at most 0.25.

With GTCR, the enrichment ratio is at most 0.25.

As to LAPY, the enrichment ratio is at most 0.25.

On to RIEH, for which the enrichment ratio was at most 0.25.

Consider LFEV, for which the enrichment ratio was at most 0.25.

Consider QTSI, for which the enrichment ratio came out at 5.6.

Consider WCHW, for which the enrichment ratio is at most 0.25.

For FWIF, the enrichment ratio is at most 0.25.

Consider YSNT, for which the enrichment ratio was at most 0.25.

As for QRPQ, the enrichment ratio was at most 0.25.

With MGRP, the enrichment ratio is at most 0.25.

As for ETFQ, the enrichment ratio was at most 0.25.

For AMDY, the enrichment ratio is at most 0.25.

As to PKAH, the enrichment ratio is at most 0.25.

For LVAK, the enrichment ratio was at most 0.25.

As for YTMG, the enrichment ratio worked out at 0.723.

Take ESIP: the enrichment ratio is at most 0.25.

YEWC: the enrichment ratio was at most 0.25.

Consider EFSK, for which the enrichment ratio was at most 0.25.

For the variant AFCE, the enrichment ratio is at most 0.25.

Regarding MPDT, the enrichment ratio is at most 0.25.

Consider NVWF, for which the enrichment ratio is at most 0.25.

Take FPPK: the enrichment ratio is at most 0.25.

As for HSPV, the enrichment ratio is at most 0.25.

Regarding WERH, the enrichment ratio was at most 0.25.

For VINY, the enrichment ratio is at most 0.25.

Consider ETLA, for which the enrichment ratio was at most 0.25.

Turning to FQKR, the enrichment ratio was at most 0.25.

Regarding ITLG, the enrichment ratio is 5.37.

For the variant SRGP, the enrichment ratio was at most 0.25.

IHKF: the enrichment ratio is at most 0.25.

As for NSHL, the enrichment ratio was at most 0.25.

In the case of FAAD, the enrichment ratio was at most 0.25.

With VPQQ, the enrichment ratio was at most 0.25.

For the variant IIHV, the enrichment ratio was at most 0.25.

QVTP: the enrichment ratio was at most 0.25.

Consider SKYH, for which the enrichment ratio was at most 0.25.

For the variant MLEW, the enrichment ratio is at most 0.25.

Regarding LIMS, the enrichment ratio is at most 0.25.

YMHP: the enrichment ratio is at most 0.25.

For the variant NTGL, the enrichment ratio was at most 0.25.

For PLLK, the enrichment ratio was at most 0.25.

NEDM: the enrichment ratio is at most 0.25.

SFSC: the enrichment ratio is at most 0.25.

QNCR: the enrichment ratio is at most 0.25.

As for MHPQ, the enrichment ratio is at most 0.25.

On to VLMM, for which the enrichment ratio is at most 0.25.

As to TIHV, the enrichment ratio was determined as 10.4.

Consider IQLG, for which the enrichment ratio is 1.09.

Take AEHQ: the enrichment ratio was at most 0.25.

Turning to DMWV, the enrichment ratio was at most 0.25.

On to NGDN, for which the enrichment ratio is at most 0.25.

For SFHG, the enrichment ratio is at most 0.25.

Regarding YQGQ, the enrichment ratio was at most 0.25.

With EIHM, the enrichment ratio was at most 0.25.
